Measured values published in the supplement of paper PMC3334620.
In all, about 33,000 sequences were measured (“E-score (-0.5 to 0.5)”: median about -0.043, highest 2% from about 0.37 on). The list shows a part of the results.

Target: T1, Upc2 (UniProt Q12151)
T1 sequence: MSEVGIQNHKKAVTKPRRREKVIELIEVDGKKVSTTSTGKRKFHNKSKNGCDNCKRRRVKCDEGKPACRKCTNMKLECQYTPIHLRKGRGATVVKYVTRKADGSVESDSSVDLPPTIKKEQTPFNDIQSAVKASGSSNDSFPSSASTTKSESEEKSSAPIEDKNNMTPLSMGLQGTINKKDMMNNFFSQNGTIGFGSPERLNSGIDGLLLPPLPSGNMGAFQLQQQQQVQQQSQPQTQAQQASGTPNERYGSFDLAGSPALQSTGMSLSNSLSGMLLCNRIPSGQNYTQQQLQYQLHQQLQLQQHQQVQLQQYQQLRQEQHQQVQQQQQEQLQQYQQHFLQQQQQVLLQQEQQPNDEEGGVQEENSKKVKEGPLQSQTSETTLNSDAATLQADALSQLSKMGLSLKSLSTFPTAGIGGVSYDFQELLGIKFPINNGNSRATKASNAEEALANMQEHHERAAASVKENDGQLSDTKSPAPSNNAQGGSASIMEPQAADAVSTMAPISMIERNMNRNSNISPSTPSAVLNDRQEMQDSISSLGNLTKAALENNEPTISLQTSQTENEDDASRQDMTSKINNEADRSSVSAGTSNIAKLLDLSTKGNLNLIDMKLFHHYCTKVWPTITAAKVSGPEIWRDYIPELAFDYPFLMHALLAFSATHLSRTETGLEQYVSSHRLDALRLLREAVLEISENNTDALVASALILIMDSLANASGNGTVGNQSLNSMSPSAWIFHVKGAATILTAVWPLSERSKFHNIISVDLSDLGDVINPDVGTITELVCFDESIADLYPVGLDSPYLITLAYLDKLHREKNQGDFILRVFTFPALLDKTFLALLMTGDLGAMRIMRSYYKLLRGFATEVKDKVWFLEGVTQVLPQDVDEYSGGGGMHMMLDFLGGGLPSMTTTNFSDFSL
Experiment: PBM E-score (8-mer binding enrichment) (E-score (-0.5 to 0.5)); higher = stronger / more preferred TF binding; most listed sequences are background and not binding sites
Settings: protein concentration: 200 nM; construct: GST-full length
Procedure: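 Universal 'all 10-mer' protein binding microarrays (Agilent AMADID 015681) probed with GST-tagged S. cerevisiae TFs (full-length or DBD) made by in vitro transcription/translation (PURExpress), about 100-200 nM. Bound TF was detected with fluorescent anti-GST. Each ungapped 8-mer (which stands for itself and its reverse complement) is scored by the PBM enrichment score (E-score), a modified Wilcoxon-Mann-Whitney statistic from -0.5 to +0.5, computed with the Universal PBM Analysis Suite. Scale: above 0.35 generally sequence-specific binding.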

Sequence | PBM E-score
GGGTCTAC | -0.107
CACGGATC | -0.00462
ACCTAAAT | 0.0691
CTAACTTA | -0.03
GAACCAGC | -0.164
ATAGTGTG | -0.129
GCACCTGC | -0.26
GTGAGTGA | -0.107
ACCCTAAC | 0.053
AATGATAG | 0.137
ATCGTTTG | 0.452
GCCAAAGC | -0.223
GACTACAC | 0.121
ATCGCAGA | -0.0673
ACTAAGCG | 0.283
CACGGCAA | 0.0197
CACAGGGC | -0.161
AACATCAG | -0.0349
TACGGAAA | 0.269
CGTGCCCA | 0.00732
AAATGGTC | -0.0155
TACCGACA | 0.133
ATCTCAGC | -0.0791
AAAGCCAT | 0.048
CGCATTCC | -0.298

Sequence | PBM E-score
CGCCGCTC | -0.0776
ATGATATC | 0.0825
ATGAGCCA | -0.0949
CCCCACGC | -0.291
CAGGGATC | -0.203
GACAAATA | 0.046
AGGACTCG | 0.0672
TGATTGCA | -0.00951
ACCCGCAC | 0.00507
CAGACGGG | -0.261
AGGATTGC | -0.128
AAATCCCG | -0.0108
CGAGAATC | 0.189
ATCGACCA | -0.148
ACACAATC | -0.0928
CCCGCCTA | 0.113
GGATTAAC | 0.0446
CGTCTAGC | 0.0496
AATAAGAC | -0.0862
AAGCCCGA | -0.159
CACTATTC | -0.0745
AAGGATGA | -0.191
CATGCACG | -0.0673
AAGTTCGG | -0.0746
AAGAGATG | -0.198

Sequence | PBM E-score
CTGGACCA | -0.153
TGTCAGAA | -0.159
GCTACAAA | 0.0259
ACGTTGAA | 0.0392
ATGCAACC | 0.00387
AGACGTTA | -0.0933
GACCTTGA | -0.143
AGGTAGGG | -0.164
AAACATCA | -0.11
AGAATTCC | -0.11
GGTGCCAA | -0.187
ACACTTGG | -0.161
ATCGGCTC | -0.0153
ACTTCGAG | -0.178
CTGGTCGA | -0.182
GATAGTTA | 0.202
AATTCGAA | -0.0411
CTAGCTCA | -0.0951
CATGGATC | -0.276
AGTATGCC | -0.189
AGGAGCAA | -0.253
CACGTGAG | -0.248
GCCCGATA | -0.0847
CCGCAAAG | 0.0459
ACGGTTTC | 0.137

Sequence | PBM E-score
GCACATAC | -0.0676
ACGTCTCA | 0.00539
TCCGAGCA | 0.176
ACCTAGCA | -0.0633
CCAAAGGC | -0.134
AAGATATG | -0.0829
GAAGGCAA | -0.0802
CGTAGTAA | 0.0705
AATCCAGG | 0.0108
AATGCGAT | 0.0549
ACAGACGA | 0.203
GAGTGGAA | -0.0959
AGGGCCAA | -0.283
ACGTCAGC | 0.119
AGCCAATC | -0.0383
GCTATGAC | -0.041
CCGTCACG | -0.12
CATCAAGA | -0.0978
AACGTAAC | 0.245
AAAAGTCT | -0.0158
TGAATACA | -0.0538
CAAAATAG | -0.197
AGCATGGA | -0.303
AGCGACAG | 0.284
TACGGCGA | 0.324

Sequence | PBM E-score
GTACAATA | 0.156
AGAGCATC | -0.226
GGCGGCGA | -0.177
CCGAGTAC | 0.196
CCTATAAC | -0.0397
AAGTCGTA | 0.416
ATATATCG | 0.152
GGGGGCAA | -0.144
ACTCCCTG | -0.33
CAGACCTC | 0.0775
CAGGGCAA | -0.199
AGTCAACA | -0.0625
GATCTCCC | -0.162
ACAACAAT | -0.0483
ATGCAGTC | -0.0606
CACCCGAG | 0.109
ACTTGGCT | -0.162
AGCTATTC | -0.0169
GGCGCTCA | -0.109
CTAACAGA | -0.187
AGCGACTC | 0.0463
GTGGTGTA | 0.0456
GCTAGTCA | -0.209
GGTGAAAA | 0.0377
CGCAGAGA | -0.0125

Sequence | PBM E-score
AATAAATA | 0.267
AGCTCCTG | -0.151
AATAAAGG | -0.101
TGAGTTAA | -0.0543
CCCAAGAG | -0.127
AGGGCACC | -0.177
AGAAGCCG | -0.0774
ACCGCCTC | -0.00964
AAGGCAAC | -0.077
ACGGGACA | 0.0973
CAGATTTA | 0.143
AAGGTCGC | -0.00748
ACAGATCT | -0.131
CTATTCAG | -0.0682
AGAGGGGC | -0.189
AATCACCC | -0.147
GCTGTAAC | 0.0533
AAAGATAC | 0.102
GTGCATAA | -0.0311
GTGGTCCA | -0.0852
ACCAAACT | -0.00694
ACCATGAA | -0.101
AGTTGGCC | -0.233
GCTTCCAC | -0.249
CGGGCGCC | -0.104

Sequence | PBM E-score
ATGCCAGA | -0.0451
AATTGAGG | -0.0823
AAGATCCT | 0.0192
GCCCAAGA | -0.187
ATATATCA | -0.22
CGTTATAC | 0.367
CCTCGGCC | -0.103
ACACCCAC | -0.105
CAAATAAG | -0.186
AGTAACTA | 0.0724
ATTAGATG | 0.182
CATTCAAC | -0.0252
TAAGGGAA | 0.096
CATCCGGC | -0.141
TTAAAGAA | 0.0771
ATACTCTA | 0.117
GTCGCCGA | 0.0364
AACCCGTC | 0.0144
GCAGTAAC | -0.0315
ACTTCAAC | 0.0881
GAGACACA | -0.0951
AAAAACTA | 0.132
